# Data published in PubChem BioAssay (NCATS).
# This list was built around the results that the source calls inconclusive (neither active nor inactive); the mix of calls is not that of the screen. Where a call stands in place of a potency, no number is given. For some assays here: A potency beside an inconclusive call is a rough fit, not a confirmed value. The source made the active and inactive calls. Unless noted, calls come from the whole dose curve; as a rule, active = well fitted curve in the direction sought with a large enough effect; inconclusive = small, poorly fitted or top-dose-only effect, or another doubt; inactive = no such curve, though single readings can be large; an effect the other way counts as inactive or inconclusive.
# Tests used:
# [1] = Primary qHTS for inhibitors of nuclear receptor binding SET domain protein 2 (NSD2) in an isogenic RCH-ACV NSD2 p.E1099K mutant (9B) (AID 1645876); conditions: activity change, negative = viability loss: at 44.9 µM (top of the series) unless noted; note: potency is the fitted concentration of half-maximal effect; nearly all actives have a fitted effect of over 70% in size
# [2] = Primary qHTS for inhibitors of nuclear receptor binding SET domain protein 2 (NSD2) in an RCH-ACV wild type WT cells (2C) (AID 1645877); conditions: activity change, negative = cell killing: at 44.9 µM (top of the series) unless noted; note: nearly all actives have a fitted effect of over 70% in size; note: potency is the fitted concentration of half-maximal effect
# HaCat = test: Cytotoxic Profiling of Annotated Libraries Using Quantitative High-Throughput Screening (AID 1296008); conditions: Five cell lines viability, CellTiter-Glo ATP luminescence, 48-72 h; max response: active compounds read low; note: nearly all actives have a fitted effect of over 60% in size; note: potency is the fitted concentration of half-maximal effect
# Outline: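 Cells exposed to compounds for 48 or 72 hr at 37 degrees Celsius. Viability read as ATP-coupled luminescence with CellTiter-Glo after 10 min at room temperature.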
# HeLa = test: Primary qHTS to identify gynecologic anti-cancer compounds using libraries of approved drugs and bioactive compounds (AID 1345084); conditions: Gynecologic cancer cell panel viability, ATPlite luminescence, 48 h; series mostly up to 57.5 µM; note: nearly all actives have a fitted effect of over 55% in size; note: potency is the fitted concentration of half-maximal effect
# Outline: (§1)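 Cell viability after 48 h drug treatment, ATPlite luminescence readout; five doses.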
# SKOV3 = test: as above; conditions: Gynecologic cancer cell panel viability, ATPlite luminescence, 48 h; series mostly up to 57.5 µM
# Outline: as §1
# Tov-21-G = test: as above; conditions: Gynecologic cancer cell panel viability, ATPlite luminescence, 48 h; series mostly up to 57.5 µM
# Outline: as §1
# [3] = system: Zika virus NS2B-NS3 protease (unlinked complex); test: Primary screen GU Rhodamine qHTS for Zika virus inhibitors: Unlinked NS2B-NS3 protease assay (AID 1347159); conditions: Recombinant ZIKV NS2B-NS3 protease, Rhodamine110 substrate fluorescence; activity change, negative = inhibition: at 107 µM (top of the series); note: potency is the fitted concentration of half-maximal effect; nearly all actives have a fitted effect of over 60% in size
# Outline: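 Percent inhibition came from the 15-min rise in Rhodamine110 fluorescence (1.5 microM substrate, ~15% conversion), normalized to no-inhibitor and no-enzyme wells and Hill-fitted. Unlinked protease, 25 nM, pH 8.0 Tris buffer; compounds up to 114 microM, 15-min preincubation.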
# [4] = system: Zika virus NS2B-NS3 protease (linked construct); test: Primary screen NINDS Rhodamine qHTS for Zika virus inhibitors (AID 1347160); note: potency is the fitted concentration of half-maximal effect; nearly all actives have a fitted effect of over 55% in size
# Outline: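 Rhodamine110-peptide cleavage (1.5 µM substrate) by 25 nM linked NS2B-NS3 enzyme at pH 8.0 (Tris, Tween 20), after 15 min RT preincubation with compounds; 15-min fluorescence change normalized to controls and Hill-fitted.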
# Hek293T = test: Primary qHTS to identify gynecologic anti-cancer compounds using libraries of approved drugs and bioactive compounds (AID 1345084); conditions: Gynecologic cancer cell panel viability, ATPlite luminescence, 48 h, control line for the selectivity index; series mostly up to 57.5 µM; note: nearly all actives have a fitted effect of over 55% in size; note: potency is the fitted concentration of half-maximal effect
# Outline: as §1
# PA-1 = test: as above; conditions: Gynecologic cancer cell panel viability, ATPlite luminescence, 48 h; series mostly up to 57.5 µM
# Outline: as §1
# [5] = S16 Schwann cell PMP22 intronic element firefly luciferase assay (AID 624032); note: potency is the fitted concentration of half-maximal effect; nearly all actives have a fitted effect of over 30% in size
# Outline: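 Rat S16 Schwann cells stably carrying firefly luciferase driven by a PMP22 intronic element, in 10% FBS, treated 24 h at 37 C. ONE-Glo luminescence normalized to PTC124 control and DMSO (0%); curves classed by r2, magnitude and activity.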
# [6] = S16 Schwann cell PMP22 intronic element beta-lactamase assay (AID 624044; calls by dose curve; note: nearly all actives have a fitted effect of over 15% in size); conditions: S16 rat Schwann cells, PMP22 element beta-lactamase FRET, 24 h; ratio activity, negative = inhibition: at 38.3 µM (top of the series) unless noted
# Outline: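 Beta-lactamase reporter under a PMP22 intronic regulatory element in stable S16 rat Schwann cells; 24 h compound exposure. 460 nm blue signal normalized between DMSO (0%) and potassium clavulanate, with 535 nm FRET tracking viability; curves classed by r2 and response.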
# [7] = qHTS of pediatric cancer cell lines to identify multiple opportunities for drug repurposing: Primary screen for Rh18 cells (AID 1347102); note: nearly all actives have a fitted effect of over 65% in size
# Outline: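 Viability after 48 h compound treatment at 37C, 500-1,000 cells/well, read as ATP luminescence with CellTiter-Glo. Primary screens used 11-point (MIPE, 0.78 nM-46 µM) or 8-point (NPC, 0.59 nM-46 µM) final concentrations; follow-up screens used 11-point dilutions.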
# [8] = qHTS of pediatric cancer cell lines to identify multiple opportunities for drug repurposing: Primary screen for RD cells (AID 1347104); note: nearly all actives have a fitted effect of over 55% in size
# Outline: (§2)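 Luminescence from CellTiter-Glo served as readout of metabolically active cells after 48 h compound exposure. Titrations: MIPE 11-point, from 0.78 nM; NPC 8-point, from 0.59 nM (final). Concentration-response curves came straight from the primary screen.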
# [9] = qHTS of pediatric cancer cell lines to identify multiple opportunities for drug repurposing: Primary screen for Rh41 cells (AID 1347108);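 note: luminescence drop marks cytotoxic hits; nearly all actives have a fitted effect of over 70% in size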
# Outline: as §2
# [10] = Primary qHTS for small molecule stabilizers of the endoplasmic reticulum resident proteome: Secreted ER Calcium Modulated Protein (SERCaMP) assay (AID 1508630); conditions: SH-SY5Y GLuc-SERCaMP (Gaussia luciferase released on ER calcium loss) secretion, thapsigargin, luminescence; activity change, negative = inhibition: at 38.4 µM (top of the series) unless noted
# Outline: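 The SH-SY5Y reporter protocol was run at 3 concentrations up to 38.3 uM (primary) or 11 concentrations (follow-up): 16 h compound, 100 nM thapsigargin for 4 h, then extracellular luciferase luminescence.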
# [11] = biological target: Cytochrome P450 2D6 (Homo sapiens) (UniProt P10635); test: Cytochrome P450 family 2 subfamily D member 6 (CYP2D6) small molecule antagonists: luciferase biochemical (cell-free) qHTS assay (AID 1645840; active = well fitted curve in the direction sought with a large enough effect in the repeat runs; inconclusive = weak or mixed curves; inactive = no such curve, though single readings can be large; an effect the other way counts as inactive or inconclusive; note: nearly all actives have a fitted effect of over 55% in size)
# UniProt P10635, sequence (P10635 whole entry, looked up): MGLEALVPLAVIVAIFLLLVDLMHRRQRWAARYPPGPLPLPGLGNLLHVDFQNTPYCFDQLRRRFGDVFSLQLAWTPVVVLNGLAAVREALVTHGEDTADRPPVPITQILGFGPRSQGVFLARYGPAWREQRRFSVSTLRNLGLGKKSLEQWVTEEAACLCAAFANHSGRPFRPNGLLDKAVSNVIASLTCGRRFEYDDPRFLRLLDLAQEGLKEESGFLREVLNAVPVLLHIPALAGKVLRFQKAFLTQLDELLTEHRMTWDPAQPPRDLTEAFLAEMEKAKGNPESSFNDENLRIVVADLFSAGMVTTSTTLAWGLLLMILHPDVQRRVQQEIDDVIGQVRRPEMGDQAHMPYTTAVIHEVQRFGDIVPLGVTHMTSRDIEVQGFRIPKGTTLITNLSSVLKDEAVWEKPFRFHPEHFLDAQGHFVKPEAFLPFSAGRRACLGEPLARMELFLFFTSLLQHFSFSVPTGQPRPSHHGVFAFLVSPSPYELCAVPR
# Outline: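 P450-Glo CYP2D6 system: proluciferin substrate converted by enzyme to luciferin, read by luminescence proportional to activity. Enzyme-substrate mix with compound 10 min at room temperature, then NADPH regeneration 1 h before detection reagent.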
# ATS189 = test: qHTS profiling for inhibitors of Plasmodium falciparum proliferation (AID 504749); note: nearly all actives have a fitted effect of over 60% in size; note: potency is the fitted concentration of half-maximal effect; conditions: P. falciparum in erythrocytes, SYBR Green DNA, 72 h; series mostly up to 28.7 µM
# Outline: (§3)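 SYBR Green fluorescence (ex 485 nm, em 535 nm) reports parasite DNA after 72 h compound exposure of infected red cells at 0.3% parasitemia, 2.5% hematocrit; signal normalized to 0.29 uM artemisinin and vehicle wells.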
# CP191 = test: as above; conditions: P. falciparum in erythrocytes, SYBR Green DNA, 72 h; series mostly up to 28.7 µM
# Outline: as §3
# CP203 = test: as above; conditions: P. falciparum in erythrocytes, SYBR Green DNA, 72 h; series mostly up to 28.7 µM
# Outline: as §3
# CP315 = test: as above; conditions: P. falciparum in erythrocytes, SYBR Green DNA, 72 h; series mostly up to 28.7 µM
# Outline: as §3
# CP335 = test: as above; conditions: P. falciparum in erythrocytes, SYBR Green DNA, 72 h; series mostly up to 28.7 µM
# Outline: as §3
# N140 = test: as above; conditions: P. falciparum in erythrocytes, SYBR Green DNA, 72 h; series mostly up to 28.7 µM
# Outline: as §3
# [12] = Primary redox qHTS assay for identification of artifact compounds. (AID 1845223); note: potency is the fitted concentration of half-maximal effect
# Outline: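 Redox-cycling detection via DTT (250 uM final) oxidation coupled to Amplex Red (25 uM)/HRP (250 mU/mL) in HBSS. 15 min preincubation plus 30 min after DTT, room temperature. Ex/Em 525/598 nm; 4-parameter Hill fit against DMSO and 10 uM DA3003.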
# [13] = P-glycoprotein substrates identified in KB-8-5-11 adenocarcinoma cell line, qHTS therapeutic library screen (AID 1346987); conditions: activity change, negative = cytotoxicity: at 44.5 µM (top of the series); note: nearly all actives have a fitted effect of over 65% in size
# Outline: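 In this qHTS, P-gp-rich KB-8-5-11 cells received library compounds across a concentration range. Viability was quantified by luminescence after 72 h at 37 degree C.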
# [14] = Confirmatory screen GU Rhodamine qHTS for Zika virus inhibitors qHTS (AID 1347157); note: potency is the fitted concentration of half-maximal effect; nearly all actives have a fitted effect of over 70% in size
# Outline: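 Buffer 10 mM Tris-HCl pH 8.0, 0.01% Tween 20. Unlinked protease 25 nM; compound preincubation 15 min, RT, protected from light. Substrate Rhod110, 1.5 microM; ~15% conversion in 15 min.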
# [15] = Confirmatory screen NINDS Rhodamine qHTS for Zika virus inhibitors (AID 1347161); note: potency is the fitted concentration of half-maximal effect; nearly all actives have a fitted effect of over 60% in size
# Outline: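 Each compound, titrated, sat 15 min with 25 nM linked protease before 1.5 microM Rhodamine110 substrate went in. Fluorescence gain over the next 15 min, in pH 8.0 Tris with Tween 20, gave Hill-fitted curves.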
# [16] = biological target: Calcium and integrin-binding protein 1 (Homo sapiens) (UniProt Q99828); test: Primary qHTS for Identification of Calcium Integrin Binding Protein 1 (CIB1) Competitor (AID 1508620); note: potency is the fitted concentration of half-maximal effect
# UniProt Q99828, sequence (Q99828 whole entry, looked up): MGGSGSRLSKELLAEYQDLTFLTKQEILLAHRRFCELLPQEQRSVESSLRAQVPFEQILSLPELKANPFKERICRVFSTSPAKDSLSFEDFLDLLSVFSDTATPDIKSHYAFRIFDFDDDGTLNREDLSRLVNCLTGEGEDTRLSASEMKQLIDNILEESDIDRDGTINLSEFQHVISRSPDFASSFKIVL
# Outline: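 Fluorescence polarization competition: GST-tagged CIB1 (1 uM final) preincubated with compound 15 min at room temperature, then FITC-labelled alphaIIb peptide (100 nM final) added. After 15 min at room temperature, polarization read at Ex 480/Em 540.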
# OV90 = test: Primary qHTS to identify gynecologic anti-cancer compounds using libraries of approved drugs and bioactive compounds (AID 1345084); conditions: Gynecologic cancer cell panel viability, ATPlite luminescence, 48 h; series mostly up to 57.5 µM; note: nearly all actives have a fitted effect of over 55% in size; note: potency is the fitted concentration of half-maximal effect
# Outline: as §1
# Tags give direction and shape of the fitted curve.
structure (smiles),measurement,setting,value
C[C@@H]1O[C@@H](O[C@H]2[C@H](OC(=O)[C@]34CCC(C)(C)C[C@H]3C3=CCC5[C@@]6(C)C[C@H](O)[C@H](O[C@@H]7O[C@H](CO[C@@H]8OC[C@H](O)[C@H](O)[C@H]8O)[C@@H](O)[C@H](O)[C@H]7O)C(C)(C)C6CC[C@@]5(C)[C@]3(C)C[C@H]4O)OC[C@@H](O)[C@@H]2O)[C@H](O)[C@H](O[C@@H]2OC[C@](O)(CO)[C@H]2O)[C@H]1O[C@@H]1OC[C@H](O)[C@H](O[C@@H]2OC[C@@H](O)[C@H](O)[C@H]2O)[C@H]1O (stereo partly specified),Potency,[1],"inconclusive: 2.44 µM [inhibitor, single point]"
same,Potency,[2],"inconclusive: 6.13 µM [inhibitor, partial curve, poor fit]"
same,outcome,HaCat,inactive
same,"activity change, negative = cytotoxicity",HeLa,inactive: 19.1% [at 6.55 µM]
same,Potency,SKOV3,"inconclusive: 6.31 µM [rising, single point]"
same,"activity change, negative = cytotoxicity",Tov-21-G,inactive: -3.09% [at 6.55 µM]
CC(=O)N[C@@H](C(=O)O[C@H]1CCC(C)(C)[C@@H]2CCC3=C(COC3=O)[C@@]12C)C(C)C,Potency,[3],"inconclusive: 10 µM [inhibitor, full curve]"
same,Potency,[4],"inconclusive: 28.2 µM [inhibitor, single point]"
same,Potency,HaCat,"inconclusive: 3.21 µM [inhibitor, partial curve, poor fit]"
same,Potency,Hek293T,inactive
same,Potency,PA-1,inactive
same,Potency,SKOV3,inactive
CCCCCCCCCCCCCCCCCCOCC(O)CO (stereo unspecified),Potency,[5],"inconclusive: 18.1 µM [inhibitor, full curve, poor fit]"
same,"ratio activity, negative = inhibition",[6],inconclusive: -4.49%
same,Potency,[7],inactive
same,Potency,[8],inactive
same,Potency,[9],inactive
same,Potency,[10],inactive
same,Potency,[11],inactive
same,Potency,[2],inactive
same,outcome,HaCat,inactive
same,Potency,HeLa,inactive
same,Potency,SKOV3,inactive
same,Potency,ATS189,inactive
same,Potency,CP191,inactive
same,Potency,CP203,inactive
same,Potency,CP315,inactive
same,Potency,CP335,"inconclusive: 4.26 µM [inhibitor, single point]"
same,Potency,N140,inactive
COc1cc(-c2cccc(O)c2)cc2c1OCO2,Potency,[4],"inconclusive: 28.2 µM [inhibitor, single point]"
same,Potency,[12],"inconclusive: 37.7 µM [activator, single point]"
same,max response,HaCat,inactive: 0.342%
same,Potency,Hek293T,inactive
O=C1OCc2cc3cccc(O[C@@H]4O[C@H](CO)[C@@H](O)[C@H](O)[C@H]4O)c3c(O)c21,Potency,[13],inactive
same,Potency,[14],"inconclusive: 34.3 µM [inhibitor, partial curve]"
same,Potency,[4],active: 11.2 µM
same,Potency,[15],"inconclusive: 30.6 µM [inhibitor, partial curve]"
same,Potency,[16],"inconclusive: 22.4 µM [inhibitor, partial curve, poor fit]"
same,Potency,HaCat,"inconclusive: 20.2 µM [inhibitor, single point]"
same,Potency,OV90,"inconclusive: 0.178 µM [cytotoxic, partial curve, poor fit]"
same,Potency,Tov-21-G,inactive
